Experimental data from the antibiotic and cytotoxicity screens of Wong et al. (2023).
This is one part of the list.

Assays:
HSkMC = human skeletal muscle cells; assay: cytotoxicity call (relative viability < 0.9); conditions: 10 µM
HepG2 = assay: cytotoxicity call (relative viability < 0.9); conditions: 10 µM
S. aureus RN4220 = assay: growth inhibition call (relative growth <= 0.2); conditions: 50 µM

Q: With `C[C@H](CO)N1C[C@H](C)[C@@H](CN(C)Cc2ccncc2)OCCCC[C@H](C)Oc2ccc(NC(=O)Nc3ccccc3)cc2C1=O` as the compound, how does the cytotoxicity call (HSkMC) read?
A: inactive

Q: What about the cytotoxicity call (HepG2) of the same compound?
A: inactive

Q: And the growth inhibition call (S. aureus RN4220)?
A: inactive

Q: `C[C@@H]1CN([C@@H](C)CO)C(=O)CCCn2nncc2CO[C@H]1CN(C)S(=O)(=O)c1ccc(-n2cccn2)cc1` was tested. Which cytotoxicity call (HSkMC) did it give?
A: inactive

Q: What about the cytotoxicity call (HepG2) of the same compound?
A: inactive

Q: And the growth inhibition call (S. aureus RN4220)?
A: inactive

Q: With `O=C(C[C@H]1CC[C@@H]2[C@H](COC[C@H](O)CN2S(=O)(=O)c2cccc(F)c2)O1)NCCCN1CCOCC1` as the compound, how does the cytotoxicity call (HSkMC) read?
A: inactive

Q: What about the cytotoxicity call (HepG2) of the same compound?
A: inactive

Q: And the growth inhibition call (S. aureus RN4220)?
A: inactive

Q: With `C[C@@H]1CN([C@H](C)CO)C(=O)CCCn2nncc2CO[C@H]1CN(C)C(=O)C1CC1` as the compound, how does the cytotoxicity call (HSkMC) read?
A: inactive

Q: What about the cytotoxicity call (HepG2) of the same compound?
A: inactive

Q: And the growth inhibition call (S. aureus RN4220)?
A: inactive

Q: `COc1ccc(S(=O)(=O)N(C)C[C@@H]2Oc3c(NC(=O)Nc4cccc5ccccc45)cccc3C(=O)N([C@@H](C)CO)C[C@H]2C)cc1Cl` was tested. Which cytotoxicity call (HSkMC) did it give?
A: inactive

Q: What about the cytotoxicity call (HepG2) of the same compound?
A: inactive

Q: What about the growth inhibition call (S. aureus RN4220) of the same compound?
A: inactive

Q: `COc1ccc(CN(C)C[C@H]2OCCCC[C@H](C)Oc3ccc(NC(=O)Nc4ccc5c(c4)OCO5)cc3C(=O)N([C@@H](C)CO)C[C@H]2C)cc1` was tested. Which cytotoxicity call (HSkMC) did it give?
A: inactive

Q: And the cytotoxicity call (HepG2)?
A: active

Q: And the growth inhibition call (S. aureus RN4220)?
A: inactive

Q: Which cytotoxicity call (HSkMC) does the source give for `COc1ccc(S(=O)(=O)Nc2ccc3c(c2)C(=O)N([C@@H](C)CO)C[C@H](C)[C@H](CN(C)C(=O)Nc2ccc(C(F)(F)F)cc2)OCCCC[C@H](C)O3)cc1` here?
A: inactive

Q: What about the cytotoxicity call (HepG2) of the same compound?
A: inactive

Q: And the growth inhibition call (S. aureus RN4220)?
A: inactive

Q: What does the source list for `C[C@H]1CN([C@@H](C)CO)C(=O)Cc2cc(NC(=O)C3CC3)ccc2O[C@H]1CN(C)S(=O)(=O)c1ccc(F)cc1`?
A: cytotoxicity call (HSkMC): inactive; cytotoxicity call (HepG2): inactive; growth inhibition call (S. aureus RN4220): inactive

Q: With `Cn1c(=O)c2c(ncn2CCO)n(C)c1=O` as the compound, how does the cytotoxicity call (HSkMC) read?
A: inactive

Q: What about the cytotoxicity call (HepG2) of the same compound?
A: inactive

Q: And the growth inhibition call (S. aureus RN4220)?
A: inactive

Q: Which cytotoxicity call (HSkMC) does the source give for `C[C@@H]1CN([C@@H](C)CO)C(=O)c2cc(NC(=O)Nc3cccc4ccccc34)ccc2O[C@H]1CN(C)S(=O)(=O)c1cccs1` here?
A: inactive

Q: And the cytotoxicity call (HepG2)?
A: inactive

Q: What about the growth inhibition call (S. aureus RN4220) of the same compound?
A: inactive

Q: Which results are given for `C[C@@H]1CN([C@@H](C)CO)S(=O)(=O)c2ccc(-c3ccc(C(=O)N(C)C)cc3)cc2O[C@@H]1CN(C)C(=O)C1CC1`?
A: cytotoxicity call (HSkMC): inactive; cytotoxicity call (HepG2): inactive; growth inhibition call (S. aureus RN4220): inactive

Q: What does the source list for `C[C@@H]1CCCCO[C@@H](CN(C)Cc2ccc(C(F)(F)F)cc2)[C@H](C)CN([C@@H](C)CO)C(=O)c2cc(NC(=O)Nc3ccc(F)cc3)ccc2O1`?
A: cytotoxicity call (HSkMC): inactive; cytotoxicity call (HepG2): inactive; growth inhibition call (S. aureus RN4220): inactive

Q: What does the source list for `C[C@H](CO)N1C[C@H](C)[C@H](CN(C)C(=O)CN(C)C)Oc2ncc(C#CC(C)(C)O)cc2C1=O`?
A: cytotoxicity call (HSkMC): inactive; cytotoxicity call (HepG2): inactive; growth inhibition call (S. aureus RN4220): inactive

Q: For `O=C(O)C[C@@H](NCCN[C@H](CC(=O)O)C(=O)O)C(=O)O`, which cytotoxicity call (HSkMC) is on record?
A: inactive

Q: What about the cytotoxicity call (HepG2) of the same compound?
A: inactive

Q: And the growth inhibition call (S. aureus RN4220)?
A: inactive

Q: Which results are given for `O=C(C[C@H]1CC[C@H]2[C@@H](COC[C@H](O)CN2C(=O)C2CC2)O1)NCc1ccncc1`?
A: cytotoxicity call (HSkMC): inactive; cytotoxicity call (HepG2): inactive; growth inhibition call (S. aureus RN4220): inactive

Q: `COc1ccc(S(=O)(=O)N[C@@H]2C=C[C@H](CC(=O)N3CCN(c4ccccc4)CC3)O[C@@H]2CO)cc1` was tested. Which cytotoxicity call (HSkMC) did it give?
A: inactive

Q: What about the cytotoxicity call (HepG2) of the same compound?
A: inactive

Q: What about the growth inhibition call (S. aureus RN4220) of the same compound?
A: inactive

Q: `C[C@H](CO)N1C[C@H](C)[C@H](CN(C)CC2CCCCC2)OCCCC[C@H](C)Oc2ccc(NC(=O)c3ccncc3)cc2C1=O` was tested. Which cytotoxicity call (HSkMC) did it give?
A: inactive

Q: And the cytotoxicity call (HepG2)?
A: inactive

Q: And the growth inhibition call (S. aureus RN4220)?
A: inactive

Q: Which cytotoxicity call (HSkMC) does the source give for `CN(C)CC(=O)N[C@@H]1CC[C@H](CCNC(=O)C2CC2)O[C@@H]1CO` here?
A: inactive

Q: And the cytotoxicity call (HepG2)?
A: inactive

Q: What about the growth inhibition call (S. aureus RN4220) of the same compound?
A: inactive

Q: With `Cc1noc(C)c1S(=O)(=O)N(C)C[C@@H]1Oc2ccc(NC(=O)Cn3cnnn3)cc2CC(=O)N([C@H](C)CO)C[C@@H]1C` as the compound, how does the cytotoxicity call (HSkMC) read?
A: inactive

Q: And the cytotoxicity call (HepG2)?
A: inactive

Q: And the growth inhibition call (S. aureus RN4220)?
A: inactive

Q: With `CCCNC(=O)N1C[C@@H]2[C@H](c3ccccc31)[C@H](CO)N2C(=O)CN1CCOCC1` as the compound, how does the cytotoxicity call (HSkMC) read?
A: inactive

Q: What about the cytotoxicity call (HepG2) of the same compound?
A: inactive

Q: What about the growth inhibition call (S. aureus RN4220) of the same compound?
A: inactive

Q: `O=C(NCC(F)(F)F)[C@@H]1[C@@H](CO)[C@@H]2Cn3c(cccc3=O)[C@H]1N2C(=O)C1CCC1` was tested. Which cytotoxicity call (HSkMC) did it give?
A: inactive

Q: And the cytotoxicity call (HepG2)?
A: inactive

Q: What about the growth inhibition call (S. aureus RN4220) of the same compound?
A: inactive

Q: `C[C@H](CO)N1C[C@H](C)[C@@H](CN(C)C(=O)Nc2cccc3ccccc23)OCCCC[C@H](C)Oc2ccc(NC(=O)Nc3cccc4ccccc34)cc2C1=O` was tested. Which cytotoxicity call (HSkMC) did it give?
A: inactive

Q: What about the cytotoxicity call (HepG2) of the same compound?
A: inactive

Q: And the growth inhibition call (S. aureus RN4220)?
A: inactive

Q: Which results are given for `C[C@@H]1CN([C@H](C)CO)C(=O)c2cc(NC(=O)NC3CCCCC3)ccc2O[C@@H](C)CCCCO[C@@H]1CN(C)Cc1ccc2c(c1)OCO2`?
A: cytotoxicity call (HSkMC): inactive; cytotoxicity call (HepG2): active; growth inhibition call (S. aureus RN4220): inactive

Q: Which cytotoxicity call (HSkMC) does the source give for `O=C(C[C@H]1C[C@H]2c3cc(NS(=O)(=O)c4ccc(F)cc4)ccc3O[C@H]2[C@H](CO)O1)NCCc1ccccc1` here?
A: inactive

Q: And the cytotoxicity call (HepG2)?
A: inactive

Q: And the growth inhibition call (S. aureus RN4220)?
A: inactive

Q: How did the cytotoxicity call (HSkMC) turn out when `C[C@@H]1CCCCO[C@H](CN(C)Cc2ccc3c(c2)OCO3)[C@H](C)CN([C@H](C)CO)C(=O)c2cc(NC(=O)NC3CCCCC3)ccc2O1` was run?
A: inactive

Q: And the cytotoxicity call (HepG2)?
A: inactive

Q: And the growth inhibition call (S. aureus RN4220)?
A: inactive
